US11365205B2 (Aurigene Discovery Technologies Limited, priority 2018, dated 2022)

These molecules were tested against PRMT5/MEP50 Complex (Homo sapiens (Human), UniProt O14744) (assay: PRMT5 inhibition based on TR-FRET assay). Conditions: 32 nM PRMT5:MEP50, 50 nM Histone-H4 peptide, 1 μM SAM.
Format: biochemical
Description: PRMT5 Inhibition Based on TR-FRET Assay:
Protein arginine methyltransferase 5 (PRMT5) is a type II arginine methyltransferase that catalyze mono- and symmetric demethylation on arginine residues of histone or non-histone proteins in presence of S-adenosylmethionine (AdoMet or SAM) a cofactor responsible for donating the methyl group. PRMT5 is reported to be overexpressed in several human cancers. To identify compounds that inhibit the PRMT5 and decrease its activity, a TR-FRET based assay has been established. Time-resolved fluorescence resonance energy transfer (TR-FRET) HTS assays are homogeneous proximity assays where the interaction of two dye-labeled binding partners is detected by the energy transfer between a donor and an acceptor dye and the subsequent light emission by the acceptor dye. PRMT5 catalyzes Histone H4 peptide which is biotin tagged to the Lysine amino acid at carboxyl end, in presence of S-adenosyl-1-methionine (SAM) to methylate the peptide. The antibody specific to mono methylated H4 peptide (H4R3) with Ig conjugate binds to the methylated peptide, indirectly binding to the Europium lanthanide. SureLight Allophycocyanin-Streptavidin binds to the biotin tag of the peptide, therefore accepting the energy transferred from the Europium lanthanide. This energy transfer between Europium to SureLight Allophycocyanin is a direct measure of the activity/inhibition of the PRMT5 enzyme.
Assay buffer: 20 mM BICINE (pH 7.6), 25 mM NaCl, 2 mM DTT, 0.01% Tween-20 and 0.01% BSA.
The compound dilutions were prepared as 7.5% DMSO stock solutions in assay buffer. To 2 μL (7.5×) of test compound, 5 μL of PRMT5 enzyme prepared in assay buffer (Final concentration of 32 nM in 15 μL reaction volume) was added and allowed for 30 minutes pre-incubation time in a white polystyrene 384-well plate at room temperature. […] The plates were then read on Victor-3 with Excitation at 340 nm and Emissions collected at 615 and 665 nm in TR-FRET protocol. […]

UniProt O14744, sequence (O14744 whole entry): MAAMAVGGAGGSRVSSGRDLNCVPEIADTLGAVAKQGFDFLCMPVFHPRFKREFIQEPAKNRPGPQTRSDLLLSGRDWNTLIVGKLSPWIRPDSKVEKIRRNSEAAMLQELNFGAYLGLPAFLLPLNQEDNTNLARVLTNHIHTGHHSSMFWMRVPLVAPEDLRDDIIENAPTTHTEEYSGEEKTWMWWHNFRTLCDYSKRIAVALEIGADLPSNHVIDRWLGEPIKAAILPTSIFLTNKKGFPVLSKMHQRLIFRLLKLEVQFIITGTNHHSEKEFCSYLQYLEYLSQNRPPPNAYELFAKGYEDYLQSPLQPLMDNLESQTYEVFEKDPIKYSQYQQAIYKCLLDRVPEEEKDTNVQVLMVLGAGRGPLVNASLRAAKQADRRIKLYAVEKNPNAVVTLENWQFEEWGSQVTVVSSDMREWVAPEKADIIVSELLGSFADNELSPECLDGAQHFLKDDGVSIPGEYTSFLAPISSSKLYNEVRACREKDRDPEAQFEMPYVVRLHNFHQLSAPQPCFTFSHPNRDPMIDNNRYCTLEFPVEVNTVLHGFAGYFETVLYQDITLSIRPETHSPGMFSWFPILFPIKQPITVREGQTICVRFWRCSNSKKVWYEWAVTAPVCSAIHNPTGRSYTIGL
UniProt O14744, sequence (Q9BQA1 whole entry partner): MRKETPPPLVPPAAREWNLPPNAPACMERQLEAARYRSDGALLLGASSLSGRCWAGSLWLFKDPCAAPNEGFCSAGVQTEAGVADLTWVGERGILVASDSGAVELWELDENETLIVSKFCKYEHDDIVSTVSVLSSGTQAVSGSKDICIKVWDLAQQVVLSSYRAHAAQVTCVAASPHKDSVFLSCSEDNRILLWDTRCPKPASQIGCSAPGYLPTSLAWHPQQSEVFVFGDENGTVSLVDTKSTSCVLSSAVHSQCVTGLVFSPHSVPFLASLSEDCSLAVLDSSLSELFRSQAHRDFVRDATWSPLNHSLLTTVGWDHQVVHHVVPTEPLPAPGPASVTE

Row | IC50 [nM] | Structure (SMILES)
1 | > 5000 | Cc1ccc(CN2CCN(CC(O)CN3CCc4ccccc4C3)C2=O)cc1 (single isomer, unassigned) [Example 15a, 1-(3-(3,4-Dihydroisoquinolin-2(1H)-yl)-2-hydroxypropyl)-3-(4-methyl-benzyl)imidazolidin-2-one]
2 | 30 | Cc1ccc(CN2C(=O)CN(CC(O)CN3CCc4ccccc4C3)C2=O)cc1 (stereo not drawn) [Example 17, 1-(3-(3,4-Dihydroisoquinolin-2(1H)-yl)-2-hydroxypropyl)-3-(4-methylbenzyl)imidazolidine-2,4-dione]
3 | 650 | O=C1N(Cc2ccccc2)CCN1CC(O)CN1CCc2ccccc2C1 (stereo not drawn) [Example 20, 1-benzyl-3-(3-(3,4-dihydroisoquinolin-2(1H)-yl)-2-hydroxypropyl)imidazolidin-2-one]
